# Test results from ChEMBL document CHEMBL5308541, “MAIP: An Open-Source Tool to Enrich High-Throughput Screening Output and Identify Novel, Druglike Molecules with Antimalarial Activity” (ACS Med Chem Lett, 2023).
# The whole screen tested about 150,000 compounds, of which about 540 (0.36%) showed an effect of 50% or more. This is one part of the list.
# Test system: Plasmodium falciparum
# Experiment: Primary screen in NF54 nanoGlo assay, in single point, at 2uM, 72h; a lower Z score goes with more inhibition
# Type: functional, Erythrocyte
# Settings: timepoint 72 hour
SMILES,% Inhibition [%],Z score
COc1ccc2c(c1F)CC[C@@H]2NC1CCN(Cc2ccc(F)c(F)c2)CC1,10,-1.53
CCN1CCN(CC2CN(Cc3ccc(-c4nn[nH]n4)cc3)CC2CO)CC1 (centres undefined),1,-0.15
CNC(=O)CN1CCC(Nc2ncnc3ccc(C(C)C)cc23)CC1,2,-0.48
COc1ccc(C[C@H](C)CNC2CCN(c3cc(C)nc(C)n3)CC2)cc1F,10,-1.78
C[C@H](NCc1cc(-c2cnn(C)c2)no1)c1cccc(-n2ccnc2)c1,0,-0.05
Cc1ncnc(N2CCN(C3CCN(c4ccc5c(c4)OCO5)CC3)CC2)c1C,-13,2.29
Cc1cccc(C)c1Nc1ccnc(Nc2c(C)cccc2C)n1,-8,1.27
Cc1cc(NC[C@H]2CN(CC(C)C)CCO2)c2ccccc2n1,33,-7.06
c1cnc(NCCCCN2CCOCC2)cn1,2,-0.24
Cc1c([C@H]2CNC[C@@H]2C(=O)N2CCN(CC3CC3)CC2)cnn1C,-7,1.04
FC(F)(F)c1nccc(NCCCN2CCOCC2)n1,4,-0.75
Cc1ccc(CN(C)CC(=O)NC(C2CCNCC2)[C@H]2C[C@H](O)C2)cc1 (some centres undefined),6,-1.04
Cc1ccc(-c2cc(Nc3cc(C)ccc3O)nc(C)n2)cc1,6,-1.08
COc1ccc(CNc2nc(NCc3ccc(OC)nc3)nc(N3CCOCC3)n2)cn1,-2,0.46
Cc1sc(=O)n(CCC(=O)Nc2nn(C(C)C)cc2C#N)c1C,-7,1.17
COc1cccc(CN2CCC[C@@]3(CCN(c4ncnc5[nH]ccc45)C3)C2)c1,-9,1.67
CN(C)CCN1CCC(NC2CCC(O)(c3cccc(Cl)c3)CC2)CC1 (centres undefined),33,-5.06
COC(=O)Nc1cccc(N[C@@H]2COC(C)(C)C2)c1,-7,1.05
CCOC(=O)c1cnc(NC2CCN(C3CCOCC3)CC2)nc1C,-3,0.58
COc1ccc(CNc2cccc(C(=O)NCCO)c2C)cc1Cl,-8,1.5
c1cc(-c2ccnc(NCc3ccc4nonc4c3)n2)ccn1,-1,0.19

SMILES,% Inhibition [%],Z score
COc1cccc2ccc(CNCCCCN3CCCCCC3)nc12,-4,0.7
COc1ccc(CCNc2cc(C)nc3c(-c4ccc(Cl)cc4)c(C(F)(F)F)nn23)cc1OC,-5,0.79
CC(C)C[C@H]1C(=O)NCCN1S(=O)(=O)Cc1cccc2cccnc12,-6,1.08
Cc1nc(Nc2ccc3[nH]ncc3c2)c2cc[nH]c2n1,9,-1.86
Cc1cccc2cc(C(=O)Nc3cccc(NC(=O)CN(C)C)c3)n(C)c12,6,-1.22
CC1CCC(N(C)C(=O)CN2CCN(C3CCN(C(C)C)CC3)CC2)CC1 (centres undefined),-1,0.15
c1ccc(-c2ccc(N3CCC(N4CC[C@H](n5ccnc5)C4)CC3)cc2)cc1,-4,0.66
Cc1nc(-c2ccc(O[C@H]3CCN(C(=O)c4[nH]nc5c4COc4ccccc4-5)C3)cc2)no1,-9,1.74
Cc1cc(-n2cncn2)ccc1C(=O)NC1CCN(C2CCN(C)CC2)CC1,-7,1.28
COc1cccc(Oc2ccc(NC(=O)[C@@H]3NCCc4[nH]cnc43)cn2)c1,-6,1.22
CC(=O)NCCNc1ncc(-c2ccoc2)c(-c2ccc(C)cc2)n1,-8,1.38
CN(Cc1ccc(OC[C@@H](O)CN2CCCCC2)cc1)Cc1nc2ccccc2o1,-8,1.35
CN(C[C@@H]1C[C@H](F)CN1Cc1cnn(C)c1)C(=O)c1ccsn1,-7,1.1
CN(C[C@@H]1CCCN(C)[C@H]1c1cncn1C)c1ncnc2[nH]ccc12,-10,1.47
CCc1cc(NCc2c(C)cc(CO)cc2C)nc(C)n1,-5,1.12
Nc1ccc(Oc2ccccc2-c2ccccc2)cc1,10,-1.94
CS(=O)(=O)N(Cc1csc(C2CCCCC2)n1)c1ccccc1F,-2,0.23
CCN1CCC[C@H](CNCc2cn(-c3ccccc3)nc2C(C)C)C1,38,-7.61
CC1(C)Oc2ccsc2[C@H](NCc2ccc(C#N)cc2)[C@H]1O,-11,2.25
CO[C@H]1C[C@@H](CN2CCCC2)N(c2cc(NCc3nnc[nH]3)ncn2)C1,-3,0.66
CC(C)N1CCN(CCCN2CCN3CCC2C3)CC1 (centres undefined),-6,0.85

SMILES,% Inhibition [%],Z score
O=C(c1coc2cc(F)ccc12)N1CCN2CCCC2C1 (centres undefined),-1,0.12
CN(Cc1cccc(Oc2cccc(C(F)(F)F)c2)c1)[C@H]1C[C@H]2C[C@@H](O)C[C@H]2C1,-9,1.37
Cc1cccc(Cn2cc(CCn3cncn3)nn2)c1Br,-5,1.17
c1ccc([C@@H]2CN(c3nccc(-c4cccnc4)n3)CCN2)cc1,3,-0.62
CN(C(=O)[C@H]1CC(=O)N(c2ccccc2Br)C1)C1CCN(CCc2ccncc2)CC1,0,-0.02
CCCN(CCC)C(=O)c1cccc(Nc2ncc(-c3cccc(C)c3)cn2)c1,-7,1.25
C1=CC[C@@H](CN2CCOc3ccc(CN4CCC(Oc5cccnc5)CC4)cc3C2)CC1,-14,2.51
CC(O)CN1CCC(CN(C)CC2CCN(C(=O)OC(C)(C)C)C2)CC1 (centres undefined),-1,0.13
NC1CCCCCC1NCCCN1CCNCC1 (centres undefined),3,-0.66
O=C(CCc1nnc(-c2ccc(-c3ccccc3)cc2)o1)NC[C@@H]1CCCN2CCCC[C@H]12,29,-4.93
CCNc1nc(NCc2ccccc2)c2cn[nH]c2n1,-6,1.21
COc1cc2nc(N3CCN(C)[C@H](c4ncc[nH]4)C3)nc(N)c2cc1OC,3,-0.58
CC(C)(C)OC1CN(C(=O)c2nc(C(F)(F)F)n3ccccc23)C1,-1,0.23
CCc1n[nH]c(=O)c(-c2nc(-c3c[nH]c4ncccc34)cs2)c1CC,10,-1.73
C[C@H](O)CN(C)C1CCN(C(=O)c2ncnc3[nH]ccc23)CC1,2,-0.28
CC(C)c1nc(NC2CCN(Cc3ccccn3)CC2)c2cnn(C)c2n1,-3,0.63
Cc1cccc(NC[C@H]2CCN(Cc3cnn4ccccc34)C2)n1,-12,2.04
CC(C)N(C(=O)c1ccc2ccccc2n1)c1ccc(Nc2ccccc2)cc1,5,-0.86
Cn1ncc2c(N)nc(NCCCOc3cccc4cccnc34)nc21,-9,1.61
F[C@H]1C[C@@H](CNc2ccc3ccccc3n2)N(Cc2cncnc2)C1,12,-1.86
Cc1cccc(OCC(=O)NCC2CCN(Cc3nccn3C3CC3)CC2)c1C,-6,1.29

SMILES,% Inhibition [%],Z score
CCCNC(=O)CCc1ccc2[nH]c(-c3ccccc3)nc2c1,-5,0.86
COc1cc([C@H](C)NC2CCN(c3ccc(Cl)cc3)CC2)ccn1,2,-0.37
CN1C[C@H](CN2CCC(c3nccc(-c4cncnc4)n3)CC2)OC1=O,-8,1.69
Cc1noc(-c2cccc(NC(=O)c3ccccc3-c3ncc(-c4ccccc4)o3)c2)n1,-8,1.16
CN(C)C1(CNc2nc(C(F)(F)F)nc3cc(F)ccc23)CCCCCC1,61,-9.21
NCC1(O)CCN(c2ccnc3cc(F)c(Cl)cc23)CC1,95,-20.37
CC(C)c1n[nH]c2c1CN(C(=O)CCn1ccc(=O)[nH]c1=O)CC2,-12,2.1
CN(C)CCN(C(=O)c1c[nH]c2ccccc12)c1nc2c(C(F)(F)F)cccc2s1,-8,1.26
CO[C@@H]1C[C@H](CNc2nc3cc(F)ccc3o2)N(c2ccncn2)C1,-7,1.43
Cc1ccc(-c2cc(Nc3nc4cc(S(=O)(=O)N(C)C)ccc4o3)nc(-c3ccccc3)c2)cc1,-17,3.65
Nc1ccc(-c2nc3c(F)cccc3[nH]2)cc1,-6,1.26
CC/N=C(\NCC)NCCN1CCN(C)CC1,-11,2.35
CN1CCN(C[C@H]2CCCN(c3cc(C(F)(F)F)nc(N4CCCC4)n3)C2)CC1,2,-0.31
CC(C)N(C)c1ccc(CN[C@H]2CCN(c3ccccn3)C2)cn1,-2,0.44
CC1(C)CC(Nc2ncnc(-c3ccccc3)n2)CC(C)(C)N1,8,-1.55
CC(=O)N1CC2=C(C1=O)[C@@H](c1cccc(OCc3cccnc3)c1)c1c[nH]c3cccc(c13)N2,-11,1.82
c1cc(CNc2ccc3nccnc3n2)cc(Cn2cncn2)c1,-7,1.45
CCCN1CCC(CC(=O)N[C@H]2CCCN(C3CCCCCC3)C2)CC1,-14,2.44
Fc1ccc(-c2noc(-c3cccc(Nc4nccc(C(F)(F)F)n4)c3)n2)nc1,-7,1.23
